Laboratory results reported in the supplement of paper PMC12217912.
This is one part of the list. Sequences were assembled here from the parent chain. Inactive controls read about 0.05.

B1: TEV protease; numbered along this chain (parent)
chain: MGESLFKGPRDYNPISSSICHLTNESDGHTTSLYGIGFGPFIITNKHLFRRNNGTLVVQSLHGVFKVKDTTTLQQHLVDGRDMIIIRMPKDFPPFPQKLKFREPQREERICLVTTNFQTKSMSSMVSDTSCTFPSGDGIFWKHWIQTKDGQCGSPLVSTRDGFIVGIHSASNFTNTNNYFTSVPKNFMELLTNQEAQQWVSGWRLNADSVLWGGHKVFMVKPEEPFQPVKEATQL

Variants of: B1
Assay: raw area under fraction-flipped curve 0-4 h after induction (AUC4h, not background-subtracted), DNA-recorder readout of cleavage of the substrate (dimensionless); higher = more cleavage of the substrate by the protease variant
Conditions: temperature: 34 °C; time window: 0-4 h after rhamnose induction
Description: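 In vivo DNA recorder in E. coli TOP10(DE3) ΔrhaA at 34 °C. Each TEVp single-site mutant (parent TEVp 0) is paired with a single-site variant of the 7-mer TEVs (canonical ENLYFQ|S). The substrate sits between flexible linkers in a Bxb1-sfGFP-TEVs-SsrA fusion, so cleavage stabilises Bxb1 and speeds flipping of a recombination array, read by NGS. The value is the raw area under the fraction-flipped curve over 0-4 h after rhamnose induction (AUC4h), with ≥20 reads per time point. It is not background-subtracted; inactive controls average about 0.047.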
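Further: Bxb1 expression induced with 0.2% (w/v) L-rhamnose at OD600 near 0.5, cultures sampled hourly, flipped fraction per protease–substrate barcode pair counted by paired-end Illumina sequencing.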

Variant | area with substrate ENLAFQS | area with substrate ENLCFQS | area with substrate ENLDFQS | area with substrate ENLFFQS | area with substrate ENLHFQS | area with substrate ENLIFQS | area with substrate ENLKFQS | area with substrate ENLLFQS | area with substrate ENLMFQS | area with substrate ENLNFQS | area with substrate ENLQFQS | area with substrate ENLRFQS | area with substrate ENLSFQS | area with substrate ENLVFQS | area with substrate ENLWFQS | area with substrate ENLPFQS | area with substrate ENLGFQS | area with substrate ENLEFQS | area with substrate ENLTFQS
N24T | 0.0679 | 0.0549 | 0.0525 | 0.0722 | 0.0479 | 0.0755 | 0.0706 | 0.0836 | 0.0602 | 0.0675 | 0.0638 | 0.0639 | 0.0571 | 0.0696 | 0.0619 | – | – | – | –
A232G | 0.0951 | 0.0906 | 0.058 | 0.106 | – | – | – | – | 0.0684 | 0.0555 | – | – | – | – | 0.0633 | 0.0667 | – | – | –
E224R | 0.077 | – | 0.0708 | 0.0752 | 0.0747 | – | 0.0237 | – | – | 0.0675 | 0.061 | 0.0835 | 0.061 | – | – | – | 0.0845 | – | –
C152E | 0.0598 | 0.0566 | 0.0685 | 0.0632 | 0.0558 | 0.0383 | 0.0611 | 0.0611 | 0.0565 | 0.0613 | 0.0655 | 0.0647 | 0.0504 | 0.0492 | 0.0651 | 0.0632 | – | 0.0781 | –
L112C | 0.0624 | 0.0612 | 0.0532 | 0.0689 | 0.0772 | 0.0874 | 0.0803 | – | – | – | 0.0615 | 0.0772 | 0.0909 | 0.0734 | 0.0709 | 0.0656 | – | 0.0688 | –
N24W | 0.0675 | 0.0759 | 0.0687 | 0.052 | 0.0712 | – | 0.0764 | 0.0543 | – | 0.0625 | 0.0601 | 0.0499 | 0.0494 | 0.0534 | 0.0767 | 0.0686 | – | 0.0663 | –
K142G | 0.0707 | 0.0757 | 0.0642 | 0.0779 | 0.0645 | 0.0709 | – | 0.0467 | – | 0.065 | 0.0705 | 0.0679 | 0.0681 | – | 0.062 | 0.067 | – | 0.059 | –
V64L | 0.0633 | 0.0609 | – | 0.0836 | 0.0811 | – | – | – | – | 0.0662 | – | – | 0.0692 | 0.0857 | 0.084 | 0.0759 | – | – | –
S18C | 0.0574 | 0.0706 | 0.0636 | 0.0698 | 0.0717 | 0.0796 | 0.0832 | 0.0719 | 0.0696 | 0.0654 | 0.0672 | 0.0757 | 0.0654 | 0.088 | 0.0625 | 0.0609 | – | 0.0894 | –
S32E | 0.0663 | 0.0726 | 0.0661 | 0.0955 | 0.0813 | 0.079 | 0.0726 | 0.0763 | 0.0733 | 0.0585 | 0.0507 | 0.0756 | 0.0684 | 0.0859 | – | 0.0718 | 0.0694 | 0.0655 | –
T72R | 0.0621 | – | 0.0847 | 0.109 | 0.0743 | 0.0938 | – | 0.0617 | 0.0799 | 0.0792 | – | 0.0647 | 0.0601 | 0.0761 | – | 0.0535 | 0.0638 | 0.0675 | 0.0773
D161V | 0.052 | 0.057 | 0.057 | 0.0545 | 0.0574 | 0.0513 | 0.0622 | 0.0561 | – | 0.0567 | – | 0.0542 | 0.0549 | 0.0549 | 0.0625 | 0.0532 | – | – | 0.0508
S16Q | 0.0714 | 0.0737 | 0.0587 | 0.0991 | 0.073 | 0.091 | 0.0776 | 0.0529 | 0.0924 | 0.0723 | 0.0663 | 0.0716 | 0.0526 | 0.0743 | 0.0677 | 0.0596 | 0.0754 | 0.0665 | 0.0415
L56T | 0.0468 | – | – | 0.065 | 0.0516 | 0.066 | 0.0597 | 0.0736 | – | 0.0634 | 0.0492 | – | 0.0505 | 0.0521 | – | 0.0591 | – | – | 0.071
C152L | 0.0516 | 0.0561 | 0.0611 | 0.0579 | 0.0617 | 0.0566 | 0.0711 | 0.0557 | 0.0611 | 0.0609 | 0.0566 | 0.0609 | 0.0525 | 0.0689 | 0.0601 | – | 0.0567 | 0.083 | 0.0792
I164A | 0.0501 | 0.0455 | 0.0622 | 0.0625 | 0.0457 | 0.0637 | 0.0603 | – | – | 0.0431 | – | 0.062 | 0.0497 | 0.0749 | – | 0.0454 | – | 0.048 | –
P184G | 0.059 | – | 0.0526 | 0.0632 | 0.0681 | – | 0.066 | – | 0.0845 | 0.0365 | – | 0.0601 | 0.0552 | 0.0845 | 0.0523 | – | 0.084 | – | –
P40R | 0.0571 | 0.0731 | 0.0803 | 0.0795 | 0.0662 | 0.0865 | 0.0891 | 0.0796 | 0.0731 | – | – | – | 0.0696 | – | 0.102 | 0.0702 | 0.0858 | – | 0.0672
P96M | 0.0447 | 0.046 | – | 0.11 | 0.0632 | 0.0703 | 0.0997 | – | 0.0667 | – | 0.0657 | 0.0888 | 0.0707 | – | – | 0.0613 | 0.0951 | 0.0677 | –
S16T | 0.0696 | 0.0818 | 0.0615 | 0.0795 | 0.082 | 0.0909 | 0.0584 | 0.0754 | 0.0987 | 0.0585 | 0.0546 | 0.0707 | 0.0596 | 0.0946 | 0.0691 | 0.0644 | 0.0605 | 0.0706 | –
W144S | 0.0533 | 0.0707 | 0.0616 | 0.0869 | 0.0572 | 0.0759 | 0.0636 | – | – | 0.0658 | 0.0573 | 0.0838 | 0.0656 | 0.0789 | 0.0628 | 0.0624 | 0.0714 | 0.0637 | 0.0415
W144V | 0.0621 | 0.0792 | 0.0663 | 0.0737 | 0.0688 | 0.0729 | 0.075 | – | – | 0.0468 | 0.0637 | 0.0666 | 0.0717 | – | 0.058 | 0.0604 | – | 0.0779 | –
T72C | 0.0663 | 0.0665 | 0.0754 | 0.0974 | 0.0723 | – | – | – | – | 0.0647 | 0.0525 | 0.0527 | 0.0723 | – | 0.0653 | – | – | – | 0.0905
V64P | 0.0561 | – | 0.0655 | 0.0704 | – | – | 0.0765 | 0.0764 | 0.0872 | 0.0478 | 0.057 | 0.0753 | 0.0626 | 0.0846 | 0.0628 | 0.0629 | 0.0668 | – | –
